Measurements: paper PMC6919601, “Identification of Plasmodium dipeptidyl aminopeptidase allosteric inhibitors by high throughput screening” (PLoS ONE, 2019)
“And” between values parts separate entries of the source, which are not always exact repeats. Identical values can stand only once. Among all 110,000 compounds or so, about 230 (0.21%) showed an effect of 50% or more. The list shows a part of the results.

Biological target: DPAP1 (Plasmodium falciparum, UniProt Q8IIJ9)
Assay: primary screen, percent inhibition; read by cleavage of a fluorogenic dipeptide substrate; higher = more effect of the substance
Set-up: species or system P. falciparum D10 trophozoite lysates; single well
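Also: 30 min substrate incubation versus DMSO and 10 µM JCP410 controls.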

Chain of DPAP1 (Q8IIJ9 whole entry, looked up): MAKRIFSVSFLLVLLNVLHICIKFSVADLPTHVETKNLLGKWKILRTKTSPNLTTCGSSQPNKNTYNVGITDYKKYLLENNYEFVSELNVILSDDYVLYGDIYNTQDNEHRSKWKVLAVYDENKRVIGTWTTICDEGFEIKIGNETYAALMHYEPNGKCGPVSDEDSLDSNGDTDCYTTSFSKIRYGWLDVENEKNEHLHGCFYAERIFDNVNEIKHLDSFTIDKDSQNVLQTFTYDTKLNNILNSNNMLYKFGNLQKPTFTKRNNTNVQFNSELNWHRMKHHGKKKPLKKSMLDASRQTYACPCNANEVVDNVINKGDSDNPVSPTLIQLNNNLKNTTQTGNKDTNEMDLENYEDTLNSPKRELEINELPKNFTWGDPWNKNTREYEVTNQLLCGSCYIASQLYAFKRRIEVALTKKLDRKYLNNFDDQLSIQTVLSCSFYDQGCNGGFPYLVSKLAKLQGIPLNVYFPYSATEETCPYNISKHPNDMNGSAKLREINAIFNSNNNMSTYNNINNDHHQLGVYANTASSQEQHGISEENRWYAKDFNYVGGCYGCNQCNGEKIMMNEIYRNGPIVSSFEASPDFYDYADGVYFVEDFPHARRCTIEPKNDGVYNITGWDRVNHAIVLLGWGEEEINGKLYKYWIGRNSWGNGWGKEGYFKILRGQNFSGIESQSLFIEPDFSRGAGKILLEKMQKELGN

Point of comparison: Cc1ccc(-n2ncc(C(=O)NCc3ccc4c(c3)OCO4)c2-n2cccc2)cc1, “% Inhibition @ 10 uM” value 10.2%. Against it:
- COc1ccc(CN2CCN(Cc3cccnc3)CC2)cc1Br — lower, -9.29%
- O=c1c(Cl)c(N2CCCC2)cnn1-c1nc2ccccc2s1 — lower, 9.59%
- CCCCCNC(=O)c1ccc(Cl)cc1Cl — lower, -0.294%
- COc1ccc(-c2cn3nc(N4CCCC(C(=O)NCCc5ccc(Cl)cc5)C4)sc3n2)cc1 (stereo not shown) — lower, 1.97%
- CCOC(=O)C1=CN(C)C=C(C(=O)OCC)C1c1cc(Br)c(O)c(OC)c1 — lower, 1.86%
- Cn1cnc2c1c(=O)n(Cc1ccccc1)c(=O)n2C — lower, 1.29%
- COc1ccc(C(=O)c2ccc(C)cc2)cc1 — lower, 4.41%
- OC1(c2ccc(Br)cc2)CCN(Cc2ccc(F)cc2F)CC1 — lower, 1.88%
- COc1ccccc1NC(=O)NC1CCCCC1 — lower, 1.35%
- CCC(NC(=O)C(NC(=O)c1ccc(-c2ccccc2Cl)c(Cl)c1)C1CCCCC1)C(=O)c1nc2ncccc2o1 (stereo not shown) — lower, -0.207%
- CCOc1ccc2[nH]c(SCC(=O)Nc3c(-c4ccccc4)nc4ccccn34)nc2c1 — lower, 2.7%
- Cc1[nH]c(-c2ccc(F)cc2)cc1C(=O)N1CCN(Cc2ccccc2)CC1 — lower, -0.361%
- CC(C)c1ccccc1NC(=O)C1CCCN1S(=O)(=O)c1ccc(Cl)cc1 (stereo not shown) — lower, 1.67%
- CCN(CC)S(=O)(=O)c1cccc(C(=O)NCc2ccccc2)c1 — lower, -0.0217%
- O=C(NCc1ccccc1)c1cc(C2CC2)on1 — lower, -7.15%
- Cc1ccc(Cn2c(SCC(=O)c3ccccc3)nc3c2c(=O)[nH]c(=O)n3C)cc1 — lower, -3.26%
- Cc1ccc(C(=O)N/C(=C\c2cccs2)C(=O)NC2CCCC2)cc1C — lower, 2.7%
- CCCN1CCN(C(=O)C2CCCN(c3ncnc4c3nc3n4CCCCC3)C2)CC1 (stereo not shown) — lower, -1.46%
- CC(C)NC(=O)c1ccccc1NC(=O)CSCc1c(Cl)cccc1Cl — lower, -3.77%
- COc1ccc(CC(=N)NOC(=O)COc2ccc(C)c(C)c2)cc1 — lower, -1.47%
- CCOC(=O)C1=C(C)N=c2s/c(=C\c3ccccc3Cl)c(=O)n2C1c1ccc2c(c1)OCO2 (stereo not shown) — lower, -3.38%
- CN1CCC(NCCc2ccccc2Cl)CC1 — lower, 1.57%
- COc1ccccc1C(=O)Nc1ccc([N+](=O)[O-])cc1Cl — lower, -1.48%
- O=C(NC1CCCCC1)c1cc2ccc3cccnc3c2[nH]1 — lower, 1.41%
- Cc1nn(C)c(C)c1CN(C)C(=O)c1cnn2c1NC(c1ccccc1)CC2C(F)(F)F (stereo not shown) — lower, -0.865%
- COc1ccc(-n2nc3ccc(NC(=O)c4ccc(OC)c(OC)c4)cc3n2)cc1 — lower, 5.07%
- Cc1ccc(-c2ccc(=O)n(Cc3ccc(F)cc3Cl)n2)cc1 — lower, 0.548%
- OC12CCCCC1C(c1cccc(C(F)(F)F)c1)NCC2 (stereo not shown) — lower, -0.13%
- O=C(NCCN1CCCCC1)c1cc2ccccc2[nH]1 — lower, 0.0539%
- CCn1cc(C(=O)Nn2cnnc2)c(=O)c2ccc(C)nc21 — lower, 4.79%
- CC1(C)OC(=O)C(=C/C=C/c2ccc(Br)o2)C(=O)O1 — lower, -4.01%
- CCCc1cc(O)n2nc(NC(=O)c3ccco3)nc2n1 — lower, -1.31%
- Cc1cc(-n2cnnn2)cc(C)c1S(=O)(=O)N1CCOCC1 — lower, -6.25%
- CC1CCCN(CCCNC(=O)C2CCN(c3ncnc4c3nc3n4CCCCC3)CC2)C1 (stereo not shown) — lower, 5.05%
- COc1cccc2cc(-c3nc(-c4ccc(Cl)cc4)no3)c(=O)oc12 — lower, -0.579%
- O=C(Nc1sc2c(c1C(=O)Nc1ccccc1)CCCCC2)c1cccnc1 — lower, 8.43%
- CCOc1ccccc1C=C1C(=O)NC(=S)NC1=O — lower, 0.467%
- Oc1ccc2ccccc2c1CN1CCC(Cc2ccccc2)CC1 — lower, -1.74%
- O=C1N/C(=C\c2ccccc2F)C(=O)N1Cc1ccc(Cl)cc1 — lower, -1.48%
- CCOC(=O)c1c(C)[nH]c(C)c1S(=O)(=O)NCc1cccnc1 — lower, 5.07%
- O=C(Nc1nccs1)c1sc2ccccc2c1Cl — lower, -1.6%
- CC1CCC(Nc2c(-c3ccc(F)cc3)[nH]c3c(C#N)cnn23)CC1 (stereo not shown) — lower, -1.11%
- CCCc1nn(C)c2c1C(c1c(Cl)cccc1Cl)C(C#N)=C(N)O2 (stereo not shown) — lower, 0.121%
- CCN(CC)S(=O)(=O)c1ccc(NC(=O)COc2ccccc2)cc1 — lower, 5.42%
- COC(=O)C1=C(C)N(Cc2cccnc2)C(=O)/C1=C\c1cccc(Br)c1 — lower, -3.4%
- CC1Cc2cc(C(=O)C3=C(O)C(=O)N(CCN4CCOCC4)C3c3cccc4ccccc34)ccc2O1 (stereo not shown) — lower, -4.62%
- O=C(NCCCn1ccnc1)C(=O)NCC(c1cccnc1)N1CCOCC1 (stereo not shown) — lower, -5.37%
- COc1ccc(C2C(C(=O)c3ccc(C)cc3)=C(O)C(=O)N2CCCN(C)C)cc1 (stereo not shown) — lower, -3.06%
- CCOC(=O)N1CCN(C(=O)c2cc(-c3ccc(C)c(C)c3)[nH]n2)CC1 — lower, -1.86%
- O=C(c1ccc(Br)cc1)N(Cc1cccs1)C1CCS(=O)(=O)C1 (stereo not shown) — lower, -3.37%
- O=c1oc2c(-c3cccc(Cl)c3)cc(O)cc2s1 — lower, 4.57%
- CCOCCCNC(=O)CCC(=O)N1Cc2cccc(OC)c2Oc2ncccc21 — lower, 4.03%
- Cc1ccccc1OCC(=O)Nc1ccc(N)cc1 — lower, 6.48%
- CCOc1ccc2sc(/C(C)=N/Cc3ccc(F)cc3)c(O)c2c1 — lower, -3.46%
- N=C(NOC(=O)c1ccc2c(c1)OCO2)c1ccc(Cl)cc1 — lower, -5.85%
- Cc1ccc(C2C=C(c3ccc(OC(F)F)cc3)Nc3nnnn32)cc1 (stereo not shown) — lower, -3.37%
- Cc1ccc(/C=C(\C#N)c2nc(C3CC3)cs2)o1 — lower, -4.08%
- CCN1C(=O)C(CC(=O)Nc2ccccc2)S/C1=N\c1cccc(C(F)(F)F)c1 (stereo not shown) — lower, 4.08%
- Cc1cccn2c(=O)c3cc(C#N)c(=O)n(CC4CCCO4)c3nc12 (stereo not shown) — lower, 2.73%
- Cc1cc(NC(=O)c2cc3nc(C(F)F)cc(C(F)F)n3n2)no1 — lower, 1.57%
- Cc1ccc2nc(Cl)c3cc(C(=O)N4CCC5(CC4)OCCO5)sc3c2c1 — lower, -0.0115%
- CSc1ccc(CC(=S)N2CCOCC2)cc1 — lower, 3.95%
- O=C(c1cc2nc(-c3ccco3)cc(C(F)(F)Cl)n2n1)N1CCOCC1 — lower, -1.95%
- CC1(C)CC2=Nc3ccccc3NC(/C=C/c3ccccc3[N+](=O)[O-])C2=C(O)C1 (stereo not shown) — lower, 0.427%
- Nc1c(C(=O)c2ccc3c(c2)OCCO3)sc2nc3c(cc12)CCCC3 — lower, 5.18%
- O=C(c1ccc(S(=O)(=O)N2CCCCC2)cc1)N1CCN(c2ccccc2F)CC1 — lower, 5.15%
- N#Cc1cccc(NC(=O)c2ccccc2Br)c1 — lower, -0.884%
- CC(=O)C1=C(C)NC(=O)NC1c1cccc([N+](=O)[O-])c1 (stereo not shown) — lower, 1.04%
- CC(=O)N(C)CCc1ccc(C)[n+]([O-])c1 — lower, -5.51%
- O=C1c2ccccc2C(=O)N1CNc1ccc(Cc2ccncc2)cc1 — lower, -8.83%
- COCCNC(=O)Cn1cc(C(=O)c2cccs2)c2ccccc21 — lower, -1.82%
- CC1=CCC2C3OC(c4ccccc43)C2C1 (stereo not shown) — lower, 0.722%
- Cc1cc(C)n2nc3nc(N4CCC(C)CC4)nc(-c4ccc(C(C)C)cc4)c3c2n1 — lower, -0.228%
- O=C(NCc1ccco1)c1cc2nc(-c3ccc4c(c3)OCO4)cc(C(F)(F)F)n2n1 — lower, 5.4%
- COc1cc(-n2c(C)nc3cc(C(=O)NC4CCCC(C)C4C)ccc32)cc(OC)c1OC (stereo not shown) — lower, -3.78%
- Cc1ccc2oc(C(=O)Nc3c(C(=O)c4ccccc4)oc4ccccc34)cc(=O)c2c1 — lower, -1.47%
- O=C(NCCN1CCOCC1)c1sc2ccccc2c1Cl — lower, 3.05%
- COc1ccc(CNC(=O)c2ccc(NC(=O)C(C)C)cc2)cc1 — lower, -3.26%
- CC1CCCCN1Cc1c(O)ccc2cc(-c3nc4ccccc4s3)c(=O)oc12 (stereo not shown) — lower, 3.04%
- Cc1cccc(NC2c3ccccc3C(=O)N2Cc2ccccc2)n1 (stereo not shown) — lower, -1.08%
- CC(C)CC(=O)Nc1nc2ccc(S(C)(=O)=O)cc2s1 — lower, -0.366%
- CCN(CC)C(=O)C1CCCN(Cc2ccccc2OC)C1 (stereo not shown) — lower, 3.25%
- Cc1sc(N)nc1-c1ccc(C(C)C)cc1 — lower, 2.03%
- COc1cccc(-n2nnc3c(=O)n(Cc4cccc(F)c4)cnc32)c1 — lower, -3.94%
- O=C(O)c1cccc2c(Cl)ccc(C(=O)O)c12 — lower, 2.86%
- O=S(=O)(Nc1ccc(F)cc1)c1cc(Cl)ccc1Cl — lower, -0.351%
- O=S(=O)(c1ccc(Br)s1)N1CCN(c2cccc(Cl)c2)CC1 — lower, -10.1%
- CCC(C(=O)NCCc1ccc(SC)cc1)n1nc(C)c2c(C)n(-c3ccccc3)nc2c1=O (stereo not shown) — lower, -3.05%
- CCN(CC)CCCC(C)NC(=O)c1c(O)nc2c(c1O)CCCC2 (stereo not shown) — lower, 4.35%
- CCOC(=O)C1=C(C)OC(N)=C(C#N)C1c1ccc(Br)s1 (stereo not shown) — lower, 1.48%
- Cc1ccc(NC(=O)c2cnn(-c3ccccc3)c2C)cc1C — lower, 0.189%
- CN1C(=O)C2Cc3c([nH]c4ccccc34)C(c3cccc(F)c3)N2C1=S (stereo not shown) — lower, -0.0372%
- CC1(C)N=C(N)N=C(N)N1c1ccccc1Br — lower, -2.35%
- C=Cc1ccc(Cn2c(C)c(CNCc3ccccc3OCC)c(C(=O)O)c2C)cc1 — lower, -7.36%
- O=C(O)Cc1ccc2c(c1)OCCO2 — lower, -5.41%
- c1ccc(-c2csc3ncnc(NCCc4cccs4)c23)cc1 — lower, -2.82%
- O=c1c2c3c(sc2nnn1Cc1ccccc1Cl)CCCC3 — lower, 2.24%
- Cn1c(Cc2csc(N)n2)nnc1SCC(=O)NC1CCCCC1 — lower, -6.27%

In the case of COc1ccc(/C=C/C(=O)C2(C)CCCCC2)cc1, the “% Inhibition @ 10 uM” value is reported as 5.35% and 0.0719%.
